Experimental findings from PubChem BioAssay AID1963576 (National Center for Advancing Translational Sciences (NCATS), 2024) are described below.

Screen size: about 46,000 compounds; about 60 (0.1%) were called active. Inconclusive results (about 3%) are left out. The call rests on the fitted dose curve; in most records, active means well fitted inhibition curve with a large enough effect; inconclusive means small, poorly fitted or top-dose-only effect; inactive means no such curve, though single readings can be large or run the other way. The list shows a part of the results.

A short description of the experiment: Primary qHTS assay for Inhibitors of ovarian cancer metastasis using an organotypic tumor microenvironment (TME) model. Further: nearly all actives have a fitted effect of over 65% in size.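 On activity change, negative = inhibition: plate controls were DMSO wells for no effect and tomatine positive control wells for full effect.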 To be noted: SKOV3ip1-GFP adhesion/invasion on 3D omental model, fluorescence; series mostly up to 45.8 µM; activity change, negative = inhibition: at the top concentration. In outline:
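Primary human omental fibroblast/mesothelial 3D culture pre-formed 48 h. SKOV3ip1-GFP cells added with compounds (0.36-46 umol/L), incubated 2 h RT/16 h 37 C, fixed; GFP cells quantified at 488/509 nm.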
(qHTS replaces the single test concentration by a dilution series.)
As to `O=C1CCCC2=C1C(c1[nH]ncc1Cl)N=C(Nc1nc3ccccc3o1)N2` (stereo not drawn), the “activity change, negative = inhibition” value was inactive: -8.44%.

As to `COc1ccc2c(c1)c(CC(=O)Nc1cc(C)cc(C)c1)c(C)n2C(=O)c1ccc(Cl)cc1`, the “activity change, negative = inhibition” value was inactive: 3.88%. Regarding `CCOc1cc(S(=O)(=O)NCCc2c(C)[nH]c3ccc(C)cc23)ccc1F`, the “activity change, negative = inhibition” value is inactive: 4.46%. On the same count and under the same terms, with `COc1ccc(C)cc1NC(=O)c1sc2nc(-c3ccc(F)cc3)cn2c1C` the figure was inactive: 3.53%; with `CCN(CC)C(=O)c1sc2c(c1C)c(=O)n(Cc1ccccc1)c(=O)n2Cc1cc(C)ccc1C`, inactive: 1.64%.

Take `O=C(NCc1ccccc1)c1cnc2sc(N3CCCC3)nn2c1=O`: the “activity change, negative = inhibition” value was inactive: -4.66%.

For the compound `COc1ccccc1NC(=O)c1sc(-c2ccc(Cl)cc2)cc1N`, the “activity change, negative = inhibition” value was inactive: -7.4%. Consider `CCc1ccc2c(c1)NC(c1ccc(F)cc1)=NC(c1ccncc1)=N2`, for which the “activity change, negative = inhibition” value is inactive: 0.475%.

For the compound `O=C(Nc1ccccc1C(F)(F)F)c1cc2nc(-c3ccccc3)cc(-c3ccccc3)n2n1`, the “activity change, negative = inhibition” value was inactive: 1.18%. On to `Cc1cc2c(cc1S(=O)(=O)C(C)CC(=O)NC1CCC(C)CC1)OCC(=O)N2` (stereo not drawn), for which the “activity change, negative = inhibition” value is inactive: -0.148%. Same read-out and setting: with `Cc1cc(C)c2oc(C(=O)Nc3ccc(S(=O)(=O)Nc4ncccn4)cc3)cc(=O)c2c1` the figure was inactive: -6.93%.

`O=C(CCCn1ncn2c(cc3occc32)c1=O)NCc1ccccc1F`: the call was inactive. As for `CCOC(=O)c1[nH]c2c(c1Cc1ccccc1OC)C(=O)CC(c1ccccc1)C2` (stereo not drawn), the “activity change, negative = inhibition” value is inactive: 1.47%. Turning to `CCCCn1c(=O)c2oc3ccccc3c2n(Cc2ccccc2C)c1=O`, the “activity change, negative = inhibition” value was inactive: -2.46%. On the same count and under the same terms, as for `O=C(COc1ccc(F)cc1)Nc1ccccc1C(=O)OCc1cc(=O)n2ccsc2n1`, the figure is inactive: 4.68%; as for `COc1cc(NC(=O)C2=CC(c3ccco3)=NS(=O)(=O)N2C)cc(OC)c1OC`, inactive: -9.63%. With `Cc1ccc(C)c(N2CCN(C(=O)c3ccc4c(=O)n(CCc5ccccc5)c(=O)[nH]c4c3)CC2)c1`, the “activity change, negative = inhibition” value is inactive: -2.15%. In the case of `COCCc1nn2c(=O)cc(COC(=O)c3ccccc3C)nc2s1`, the outcome was inactive. In the case of `CCCSCCCNC(=O)CN1C(=O)COc2ccc(S(=O)(=O)N3CCCC3)cc21`, the “activity change, negative = inhibition” value is inactive: 9.54%.

Turning to `O=C(Nc1cc(-c2ccc(Cl)cc2)no1)c1ccc(F)cc1`, the “activity change, negative = inhibition” value is inactive: -10.2%. Same read-out and setting: with `NC(=O)c1ccccc1NC(=O)CN1c2ccccc2S(=O)(=O)c2ccccc21` the figure was inactive: 6.51%.

Consider `Cc1nc(-c2ccccc2)sc1CCNC(=O)C(=O)Nc1ccc(F)c(Cl)c1`, for which the “activity change, negative = inhibition” value was inactive: -6.11%. Regarding `CCc1ccc(NC(=O)C(=O)NCC(c2cccnc2)N2CCc3ccccc3C2)cc1` (stereo not drawn), the compound was classed as inactive. Consider `O=C(Nc1sc2c(c1C(=O)NCc1ccccc1)CCCC2)c1cc(=O)c2ccccc2o1`, for which the “activity change, negative = inhibition” value was inactive: 0.799%.

Consider `COc1nnc(-c2ccc(N3CCCCC3)c(NC(=O)c3ccccc3Cl)c2)c2ccccc12`, for which the “activity change, negative = inhibition” value was inactive: 4.16%. With `COc1ccc(Cl)cc1C(=O)NCc1nnnn1-c1ccccc1`, the compound was called inactive. Regarding `COc1cc(Cl)c(C)cc1NC(=O)Cn1c2ncccc2c(=O)n1-c1ccccc1`, the “activity change, negative = inhibition” value was inactive: -7.48%. Consider `CCc1ccc(-n2nnc(-c3nc(-c4ccc(C)cc4)no3)c2N)cc1`, for which the compound was called inactive. With `COc1cccc(N2CCN(C(=O)Cn3nc(C)n4c(cc5c(OC)cccc54)c3=O)CC2)c1`, the “activity change, negative = inhibition” value was inactive: -6.82%.

Turning to `COCc1cc(C)nc2c1C(=O)NC(c1ccc(Br)cc1)N2Cc1ccccc1` (stereo not drawn), the “activity change, negative = inhibition” value was inactive: -12.8%. Turning to `COC(=O)c1c(NC(=O)COc2ccc(Cl)cc2)sc(C)c1C`, the “activity change, negative = inhibition” value is inactive: -3.92%. Regarding `CCOc1ccccc1C(=O)NCC(c1cccs1)S(=O)(=O)c1ccc(F)c(C)c1` (stereo not drawn), the “activity change, negative = inhibition” value is inactive: -9.77%.

As to `CCc1ccc(NC(=O)CSc2nc3c(c(=O)[nH]2)CN(Cc2ccc(C)cc2)CC3)cc1`, the “activity change, negative = inhibition” value was inactive: -10.6%. On the same count and under the same terms, with `O=C(NCc1ccc(Cl)cc1)C1CCN(c2ncnc3c2nc2n3CCCCC2)CC1` the figure was inactive: -2.31%; with `CCOC(=O)c1noc2ncnc(N3CCN(c4cccc(C(F)(F)F)c4)CC3)c12`, inactive: 46.7%; with `COc1ccc(Cn2c(=O)n(-c3ccc(OC)cc3)c(=O)c3c2c2cc(OC)ccc2n3C)cc1`, inactive: 7.18%. Consider `COc1cccc(-c2nc(SCC(=O)NCc3ccco3)c3c(=O)n(C)c(=O)n(C)c3n2)c1`, for which the “activity change, negative = inhibition” value was inactive: 2.23%. In the case of `CC1CCN(C(=O)Cn2cc(SCC(=O)Nc3ccccc3)c3ccccc32)CC1`, the “activity change, negative = inhibition” value was inactive: 1.83%. Still for that read-out and setting: as for `O=C(CSc1c2c(nc3cc(Cl)ccc13)CCCC2)N1CCN(c2ccccc2)CC1`, the figure is inactive: 1.7%; as for `CCOC(=O)c1c(-c2ccc(C)cc2)csc1NC(=O)c1cc(=O)c2cc(C)cc(C)c2o1`, inactive: -10.3%. In the case of `COc1cc(NC(=O)c2c3c(nc4ccccc24)C(=O)N(C2CCCCC2)C3)cc(OC)c1`, the compound was called inactive. As for `COc1ccc(-n2c(SCc3ccccc3F)nc3c([nH]c4ccccc43)c2=O)cc1OC`, the result was inactive. As for `COc1ccc(-c2cc(C)no2)cc1S(=O)(=O)NCc1ccco1`, the “activity change, negative = inhibition” value was inactive: -8.86%. As for `CCN(CC)S(=O)(=O)c1ccc2c(c1)c(=O)c(C(=O)NCc1ccccc1Cl)cn2C`, the call was inactive. For `CCCn1cc(S(=O)(=O)c2ccc(OC)cc2)c(=O)c2cc(F)c(N3CCCC(C)C3)cc21` (stereo not drawn), the “activity change, negative = inhibition” value is inactive: 30.9%.

As to `CC(=O)c1ccc(NC(=O)C2=CC(c3ccc(C)cc3)=NS(=O)(=O)N2C)cc1`, the “activity change, negative = inhibition” value is inactive: -1.23%. In the case of `COc1ccc(Cn2ccn(Cc3cccc(Cl)c3)c(=O)c2=O)cc1`, the compound was classed as inactive. With `Cc1ccc(S(=O)(=O)Cc2nc(-c3ccc(C(=O)NCc4ccccc4C)cc3)oc2C)cc1`, the “activity change, negative = inhibition” value is inactive: -4.85%.
